According to PubChem BioAssay AID624202 (National Center for Advancing Translational Sciences (NCATS), 2012):
The campaign covered roughly 380,000 compounds. About 4,000 (1.1%) were called active. This list was built around the results that the source calls inconclusive (neither active nor inactive); the mix of calls is not that of the screen. Calls follow the shape of the dose curve; as a rule, active = well fitted activation curve with a large enough effect; inconclusive = small, poorly fitted or top-dose-only effect; inactive = no such curve, though single readings can be large or run the other way. Potencies beside an inconclusive call are fits to weak or partial responses and may not hold up.

assay: qHTS Assay to Identify Small Molecule Activators of BRCA1 Expression; conditions: MCF7-BRCA1-FFLuc reporter, luminescence, 48 h; activation: at 46.1 µM (top of the series), scaled: vehicle 0%, 10 µM genistein 100% unless noted; also: nearly all actives have a fitted effect of over 80% in size
Method in brief: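 First, MCF7-BRCA1-FFLuc cells (2000/well) attach for 2 h; next, compounds are pin-added and incubated 48 h at 37 °C; finally, luciferase reagent is added and luminescence read after 15 min.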
Potency is read from the fitted curve at half-maximal effect; tags tell the direction and shape of the fitted curve.

SMILES	Potency	activation
NC(=O)C1CCN(Cc2ccc(OCc3ccccc3)cc2)CC1	active: 11.2 µM	–
Nc1nonc1-c1noc(COc2ccccc2Cl)n1	inconclusive: 1.78 µM [activator, full curve, poor fit]	–
Cc1ccc(C(=O)O/N=C(\N)c2cccnc2)cc1[N+](=O)[O-]	active: 11.2 µM	–
N#CCCn1cc(C(=O)NCc2ccccc2)c(-c2cccs2)n1	inactive	–
Cc1ccc(NC(=O)CC2COc3ccccc3O2)cc1 (stereo unspecified)	inconclusive: 11.2 µM [activator, partial curve, poor fit]	–
COc1ccc(OC)c(NC(=S)NCCC(c2ccccc2)c2ccccc2)c1	inactive	–
COc1ccc(S(=O)(=O)N(C)C[C@H]2OCCCC[C@H](C)Oc3ccc(N(C)C)cc3C(=O)N([C@H](C)CO)C[C@@H]2C)cc1	inactive	–
Cc1cc(C)cc(OCC(=O)O/N=C(\N)c2ccccn2)c1	inconclusive: 12.6 µM [activator, partial curve, poor fit]	–
Cc1[nH]n(C(N)=S)c(=O)c1N=Nc1cccc(C(F)(F)F)c1	inconclusive: 2.51 µM [activator, partial curve, poor fit]	–
COc1ccc(OCc2cc(C(=O)N(C)Cc3nnc(C)o3)no2)c(Cl)c1	active: 7.08 µM	–
CCC(=O)NCC(c1cccs1)N1CCOCC1 (stereo unspecified)	inactive	–
O=C(NNC(=O)C1CCCCC1)c1ccc(Br)cc1	inconclusive: 12.6 µM [activator, single point]	–
CCN(C(=O)c1ccccc1F)c1nc(-c2ccc(OC)cc2)cs1	active: 7.94 µM	–
COc1ccc(NC(=O)Nc2cc(C)ccc2F)cc1	inconclusive: 2.51 µM [activator, full curve, poor fit]	–
O=C(CSCc1ccccc1Cl)N1CCN(c2ccccn2)CC1	inconclusive: 11.2 µM [activator, partial curve, poor fit]	–
Cc1cc(C(=O)CSc2nc3ccccc3[nH]2)c(C)n1C	inconclusive: 0.631 µM [activator, full curve, poor fit]	–
Cc1cc(Br)ccc1OCc1nnc(-c2ccccc2)o1	active: 12.6 µM	–
Cc1cc(C)cc(NC(=O)c2oc3ccc4c(c3c2C)C(=O)CC(C)(C)O4)c1	inconclusive: 0.891 µM [activator, full curve, poor fit]	–
CCOC(=O)c1sc(N(Cc2ccccc2)C(=O)CSc2nnc(C3CC3)n2N)nc1C	active: 8.91 µM	–
CC(=Nc1ccccc1)c1sc2ccccc2c1O	inactive	–
O=C(CCCc1ccccc1)Nc1ccccc1[N+](=O)[O-]	inconclusive: 10 µM [activator, partial curve, poor fit]	–
COc1ccccc1OCCSc1nnnn1-c1ccc(C)cc1	inconclusive: 12.6 µM [activator, partial curve, poor fit]	–
CC(=O)c1ccc(NC(=O)C2CC(=O)N(Cc3ccccc3)C2)cc1 (stereo unspecified)	inconclusive: 14.1 µM [activator, partial curve, poor fit]	–
CCC(=O)NCCc1nc2cc(NC(=O)c3ccc(F)cc3)ccc2n1C	inconclusive: 12.6 µM [activator, partial curve, poor fit]	–
COCC(C)N=C1NN=C(c2cc(C)n(Cc3ccccc3Cl)c2C)CS1 (stereo unspecified)	inactive	–
O=c1oc2ccccc2cc1-c1csc(NN=C2CCCCC2)n1	inconclusive: 15.8 µM [activator, partial curve, poor fit]	–

SMILES	Potency	activation
COc1cc(SC)ccc1C(=O)NCCOc1ccc(F)cc1	active: 10 µM	–
Cc1nc2sc(-c3ccccc3)cc2c(=O)n1/N=C/N(C)C	inconclusive: 11.2 µM [activator, partial curve, poor fit]	–
CCOC(=O)c1ccc(-c2nnc(-c3ccc(Cl)cc3Cl)o2)cc1	active: 0.891 µM	–
COc1ccc(CN=C2Nc3ccccc3CS2)cc1	–	inconclusive: 102% [activator] [at 1.84 µM, scaled: vehicle 0%, 10 µM genistein 100%]
O=C(CCCl)N1CCN(c2nc(-c3ccccc3)cs2)CC1	inconclusive: 14.1 µM [activator, partial curve, poor fit]	–
CC(C)c1nc2oc3c(NCC4CCCO4)ncnc3c2c2c1CCC2 (stereo unspecified)	inactive	–
CC(C)c1ccc(NC(=O)NN2CCOCC2)cc1	inconclusive: 1.26 µM [activator, full curve, poor fit]	–
COc1ccc(CN2c3c(Br)cccc3C(=O)CS2(=O)=O)cc1	inactive	–
O=C1C=CC(=O)N1Cc1cccnc1	inactive	–
O=C(Nc1nc2ccc(S(=O)(=O)N3CCOCC3)cc2s1)c1cccs1	inconclusive: 10 µM [activator, partial curve, poor fit]	–
Cc1cc(C)c2nc(N3CCC(C(=O)NCCCN4CCCCC4)CC3)sc2c1	inactive	–
CNC(=O)c1ccc(-c2ccccc2)s1	inconclusive: 22.4 µM [activator, single point]	–
O=C(Nc1nnc([C@@H]2C[C@H](O)[C@@H](CO)O2)s1)Nc1ccccc1F	active: 6.31 µM	–
Nc1n[nH]c(N)c1N=Nc1ccc(Cl)cc1	inactive	–
CN1/C(=C\C(=O)c2cccs2)Sc2ccccc21	inactive	–
COc1ccc(S(=O)(=O)Nc2cc(Sc3ncn[nH]3)c(O)c3ccccc23)cc1	inactive	–
COc1ccc(-c2ccc(C(=O)Nc3cccc(N(C)C)c3)c3occc23)c(C)c1	active: 2.51 µM	–
Cc1oc(-c2ccc(-c3ccccc3)cc2)nc1CN(C)C1CCOC1 (stereo unspecified)	inconclusive: 2.51 µM [activator, full curve, poor fit]	–
COc1ccc(Br)cc1/C=N/Nc1cccc(C(=O)O)c1	inconclusive: 15.8 µM [activator, partial curve, poor fit]	–
CCc1ccc(/C=C/C(=O)c2ccc(N3CCOCC3)cc2)cc1	inactive	–
O=C(Nc1nc(-c2cccc(Br)c2)cs1)Oc1ccccc1	inconclusive: 14.1 µM [activator, partial curve, poor fit]	–
O=C(CNC(=O)c1ccccc1F)Nc1ccc2c(c1)CCC2	active: 3.98 µM	–
Oc1c(Cl)cc(Cl)cc1/C=N/c1nccs1	inactive	–
Cc1sc(NC(=O)C2CCCCC2)c(C#N)c1-c1ccccc1	active: 7.08 µM	–
CC1=NC(C)(C)CC2CCC(O)C12 (stereo unspecified)	inactive	–
NC(=O)c1cc(Cl)ccc1OCC(=O)Nc1ccc2c(c1)OCO2	inconclusive: 2.24 µM [activator, partial curve, poor fit]	–

SMILES	Potency	activation
Cc1ccc(/C=N/NC(=O)CSc2nc3ccccc3o2)cc1	active: 11.2 µM	–
Cc1ccc(-c2nc(-c3ccccn3)no2)cc1[N+](=O)[O-]	–	inconclusive: -41.5% [activator]
CCOc1ccc(C(=O)Cc2ccccc2)cc1	inconclusive: 12.6 µM [activator, partial curve, poor fit]	–
Cc1ccc(C(=O)N2CCc3ccccc32)cc1	active: 11.2 µM	–
CNC(C)C#Cc1ccc2oc3cccc(OC)c3c(=O)c2c1 (stereo unspecified)	inconclusive: 12.6 µM [activator, partial curve, poor fit]	–
CC(=NNC(=S)Nc1cccc(Cl)c1)c1ccccn1	–	inconclusive: -74.3% [activator]
Cc1ccccc1NC(=O)c1cnn(-c2ccccc2)c1C	inconclusive: 6.31 µM [activator, partial curve, poor fit]	–
CC(C)(C)c1ccc(C(=O)NNC(=O)C2CCCCC2)cc1	inconclusive: 14.1 µM [activator, partial curve, poor fit]	–
Cc1ccc(C(=O)N=c2sccn2C)cc1S(=O)(=O)N1CCOCC1	inconclusive: 10 µM [activator, partial curve, poor fit]	–
COc1ccc(C)cc1NC(=O)Cn1c(=O)oc2cc(S(=O)(=O)N3CCCCC3)ccc21	inactive	–
Cc1ccc(Sc2cnn(-c3ccccc3)c(=O)c2Cl)cc1	inactive	–
Cc1cccc(C(=O)NC(C(=O)Nc2nc(-c3ccccn3)cs2)C(C)C)c1 (stereo unspecified)	inactive	–
Nc1nc(=S)c2snnc2[nH]1	inactive	–
COc1ccc(-c2oc3ncnc(NCCN4CCOCC4)c3c2-c2ccc(OC)cc2)cc1	inactive	–
CN(c1ccccc1)c1ccc(/C=C(\CCC(=O)O)c2nc3ccccc3s2)cc1[N+](=O)[O-]	inactive	–
CC(=O)c1sc(NC(=O)C2COc3ccccc3O2)nc1C (stereo unspecified)	inconclusive: 0.631 µM [activator, full curve, poor fit]	–
COC(=O)c1ccc(NC(=O)NC2CCCCC2)cc1	inconclusive: 10 µM [activator, partial curve, poor fit]	–
O=C(c1ccc2c(c1)OCO2)N1CCC2(CC1)Oc1ccc(F)cc1C(=O)C21CC(c2ccc(Cl)cc2)=NO1 (stereo unspecified)	inactive	–
O=C(CCN1C(=O)/C(=C/c2ccc(F)cc2)SC1=S)NC1C=CS(=O)(=O)C1 (stereo unspecified)	inconclusive: 31.6 µM [activator, single point]	–
COc1ccc2nc3ccccc3nc2c1	active: 12.6 µM	–
Cc1[nH]c2ccccc2c1C(=O)CSC(=S)N1CCN(C)CC1	inconclusive: 12.6 µM [activator, partial curve, poor fit]	–
O=C(OCc1ccccc1)N1CCN(/[N+]([O-])=N/Oc2ccc([N+](=O)[O-])cc2[N+](=O)[O-])CC1	inactive	–
COc1ccccc1NS(=O)(=O)c1cccc(C(=O)NC2CCN(Cc3ccccc3)CC2)c1	inactive	–
Cc1nc(N)nc(COc2ccccc2)n1	inconclusive: 14.1 µM [activator, partial curve, poor fit]	–
